In PubChem BioAssay AID1508624 (National Center for Advancing Translational Sciences (NCATS), 2021):
Screen size: about 48,000 compounds; about 120 (0.25%) were called active. Roughly 4% stayed inconclusive and do not appear here. The call rests on the fitted dose curve; in most records, active means well fitted activation curve with a large enough effect; inconclusive means small, poorly fitted or top-dose-only effect, or another doubt; inactive means no such curve, though single readings can be large or run the other way. The list shows a part of the results.

assay: Primary qHTS for Identification of Small Molecule Activators of Huntingtin-Antisense Promoter Activity; settings: HEK293 HTT-AS promoter firefly luciferase reporter (activity 0% = vehicle and -100% = no light), 24 h; series mostly up to 57.5 µM; activity change, positive = activation: at the top concentration; further: nearly all actives have a fitted effect of over 55% in size
Outline: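 Quantitative HTS used concentration series of up to 57.5 uM final on HEK293 luciferase reporter cells, 24 h at 37 degrees C. Readout was Dual-Glo firefly luminescence.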

Activity change, positive = activation, inactive:
O=C(Nc1ccc(-c2cc(C(F)(F)F)nn2-c2ccccc2)cc1)c1cccc(F)c1 -73%
CCN(CC)c1ccc(C(=O)NCc2ccc3c(c2)CCN3C(=O)c2ccccc2)cc1 12.2%
CCN1CCC(N(Cc2cccc(OC)c2)C(=O)Nc2cccc(C(F)(F)F)c2)CC1 -13.9%
Cc1ccc2c(c1)N(C(=O)CCC(=O)Nc1ccccc1Cl)CC(C)O2 (stereo not drawn) -1.35%
O=c1cc(CSc2ncn[nH]2)[nH]c2c(Cl)cccc12 1.61%
COc1ccc(OC)c(Nc2nc(-c3ccc(C)cc3)nc3ccccc23)c1 -4.05%
CCOC(=O)c1c(C)[nH]c(C)c1S(=O)(=O)NCC(=O)Nc1cccc(C(F)(F)F)c1 -3.02%
CCOc1ccc(C2c3c(-c4ccc(C)cc4)n[nH]c3C(=O)N2c2ccc(Cl)cc2)cc1 (stereo not drawn) -55.3%
CC1CCCN(C(=O)Cn2c(=O)oc3cc(S(=O)(=O)N4CCCCC4)ccc32)C1 (stereo not drawn) 3.45%
Cc1ccc(F)c(NC(=O)Nc2ccc(-c3cccc4[nH]nc(N)c34)cc2)c1 -1.06%
Cc1cccc(NC(=O)NCCn2c(=O)oc3ccc(C)cc32)c1 -9.71%
Cc1oc2c(c1C(=O)NCc1cccc(Br)c1)C1=NCCN1C=N2 -6.91%
CCOC(=O)Cn1c(=O)n(CC2CCCO2)c2nc(-c3ccc(OC)cc3OC)nc(C(N)=O)c21 (stereo not drawn) -7.97%
Cc1ccc(CNC(=O)CCCn2c(=O)c3ccccc3n(CC(=O)C(C)(C)C)c2=O)cc1 -22.2%
COc1cc(NC(=O)C(CC(C)C)NS(=O)(=O)c2ccc3c(c2)CCCC(=O)N3)cc(OC)c1 (stereo not drawn) -9.68%
COc1ccc(CNC(=O)CN(c2ccc(C)cc2)S(=O)(=O)c2c(C)n[nH]c2C)cc1 -5.36%
COc1ccc2oc(=O)c(-c3csc(/C(C#N)=C/c4ccc(F)cc4)n3)cc2c1 1.77%
COc1ccc(CNC(=O)c2cc3c(-c4ccccc4F)nn(C)c3s2)c(OC)c1 -49.9%
COc1ccccc1N1CCN(C(=O)C2CCN(S(=O)(=O)c3cnc[nH]3)CC2)CC1 8.32%
CCOc1ccc(NC(=O)Cn2c(=O)n(-c3ccc(C)cc3)c(=O)c3cc(OC)c(OC)cc32)cc1 -3.23%
Cc1ccc(C)c(N2CCN(C(=O)c3cnc4c(-c5ccccc5)c(C)nn4c3C)CC2)c1 -3.74%
Cc1ccc(/C=C(\C#N)C(=O)Nc2cc(C)ccc2C)cc1 24.2%
CCOC(=O)c1c(NC(C)=O)c2c3c(sc2n1Cc1nc(-c2ccccc2OCC)oc1C)CCCC3 2.7%
COc1cccc(NC(=O)Cn2cc(C(=O)C3CCCCC3)c3ccccc32)c1 -28.6%
CC(C)(C)OC(=O)N[C@H]1CCCCCC=C[C@@H]2C[C@@]2(C(=O)NS(=O)(=O)C2CC2)NC(=O)[C@@H]2C[C@@H](OC(=O)N3Cc4cccc(F)c4C3)CN2C1=O -22.2%
COc1cccc(CNC(=O)CN2C(=O)N(c3cc(C)ccc3C)S(=O)(=O)c3ccccc32)c1OC -36.6%
COc1cc(C)c(Cl)cc1S(=O)(=O)NCCc1c(C)[nH]c2ccccc12 -17.5%
Cc1ccc(C)c(CN2C(=O)c3ccccc3S(=O)c3ccc(C(=O)NCc4ccccc4Cl)cc32)c1 (stereo not drawn) -15.2%
Cc1nc2c(c(C)c1CCC(=O)Nc1cccc(C(F)(F)F)c1)c(=O)n(C)c(=O)n2C -11.5%
Cc1nnc(NC(=O)CSc2nccn2-c2cccc(Cl)c2)s1 -13.3%
CC1CCCN(S(=O)(=O)c2cc3c(cc2Cl)NC(=O)CO3)C1 (stereo not drawn) -25.5%
COc1ccc(C(=O)Nc2ccccc2C(=O)OCc2cc(=O)n3c4c(sc3n2)CCCC4)cc1 -4.96%
O=C(CCC(=O)N1CC2CCCN2c2ccccc21)NCc1ccccc1Cl (stereo not drawn) -20.3%
COc1ccc(-c2cc(=O)n3[nH]cnc3n2)cc1 24.2%
COc1ccccc1CNc1nc2nc(C)c(Cl)c(C)n2n1 6.33%
COC(=O)c1c(NC(=O)c2cccc(OC)c2)sc2c1CCC(C(C)(C)C)C2 (stereo not drawn) -30.2%
Cc1cccc(-c2nc(SCC(=O)Nc3cc(C)on3)c3c(=O)n(C)c(=O)n(C)c3n2)c1 -1.58%
Cc1ccc(NC(=O)N2CCC(N3CCN(Cc4ccccc4)C(=O)C3=O)CC2)cc1Cl 6.39%
COc1ccc(N2CCN(c3ccc(-c4nc(-c5ccccc5C)no4)cc3[N+](=O)[O-])CC2)cc1 -4.7%
Cc1ccc(-c2nnc(Nc3ccc(Br)cc3)c3ccccc23)cc1S(=O)(=O)N1CCOCC1 -14.6%
COc1ccc(-n2c(=O)c3sc4ccccc4c3n(CC(=O)Nc3cccc(C)c3)c2=O)cc1 2.07%
COc1cc(C=C2CCC/C(=C\c3ccc(O)c(OC)c3)C2=O)ccc1O -80.2%
Cc1ccc(NC(=O)C(Cc2ccccc2)NS(=O)(=O)c2ccc3c(c2)oc(=O)n3C)c(Cl)c1 (stereo not drawn) -18.9%
COc1ccccc1NC(=O)c1cc(S(=O)(=O)N(C)C2CCCCC2)ccc1F -27.8%
CC1=C(C(=O)Nc2ccccc2C)C(c2cccnc2)n2nc(SCc3ccccc3)nc2N1 (stereo not drawn) -3.42%
COCCNC(=O)Cn1cc(S(=O)(=O)Cc2ccccc2Cl)c2ccccc21 -3.09%
CCOC(=O)N1CCc2c(sc3c2c(=O)n(CCc2ccccc2)c(=O)n3Cc2cc(C)ccc2C)C1 -14.8%
CCOc1ccccc1NC(=O)c1cn(C2CCCC2)c(=O)c2c1c1ccccc1n2C -13.6%
COc1ccccc1NC(=O)C1=C(C)Nc2nc(SCc3ccccc3)nn2C1c1ccccn1 (stereo not drawn) -32%
CCN(CC)S(=O)(=O)c1ccc2c(c1)N(CC(=O)NCCc1ccc(OC)c(OC)c1)C(=O)CO2 -11%
COc1ccc(-c2nsc(NC(=O)COc3ccc(C)c(C)c3)n2)cc1 -1.84%
CCc1ccccc1NC(=O)C1(S(=O)(=O)c2ccc(Cl)cc2)CC1 -7.39%
Cc1ccc(C)c(N2CCN(C(=O)c3cc4ccc5cccnc5c4[nH]3)CC2)c1 -7.48%
Cc1cc(C)cc(NC(=O)CN2C(=O)CSc3ccc(S(=O)(=O)N(C)C)cc32)c1 -10.1%
Cc1ccc(OCC(=O)Nc2ccc(Cl)c(-c3nc4ncccc4o3)c2)cc1C 21.6%
CCOC(=O)c1c(C)oc2ncnc(Nc3ccc(F)cc3Cl)c12 -16.7%
COc1ccccc1CNC(=O)CCn1c(=O)c2ccccc2n(CC(=O)Nc2ccc(C)cc2)c1=O -57.7%
Cc1cccc(CNC(=O)C2CCCN(S(=O)(=O)c3cn(C)cn3)C2)c1 (stereo not drawn) 1.28%
